Laboratory results from patent publication US20170304437A1 (ALLIGATOR BIOSCIENCE, published 2017).

B1: human CTLA4-Fc (Fitzgerald #30R-CD152) (Fc fusion)
chain: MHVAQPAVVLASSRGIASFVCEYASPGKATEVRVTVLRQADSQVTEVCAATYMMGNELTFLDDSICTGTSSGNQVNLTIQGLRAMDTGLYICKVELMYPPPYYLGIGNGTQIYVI
notes: Bought reagent; also called biotinylated-CTLA4; human CTLA-4 (Fitzgerald); not shown: Fc part of the bought fusion

Columns and labels:
[1] = target: Bispecific polypeptide 1140/1141; assay: inhibition ELISA: 1140/1141 pre-incubated with titrated soluble human CTLA4-Fc, mixture added to coated human CTLA-4 (competitor)
CD40-Fc (R&D #1493-CD) = target: T1, CD40-Fc (R&D #1493-CD) (human, UniProt P25942 in part); assay: Biacore SPR, immobilised CD40-Fc (protocol of Example 7)
T1 construct: Bought reagent immobilised on the Biacore chip; also called human CD40; not shown: Fc part of the bought fusion
Procedure: CD40-Fc (R&D #1493-CD) was immobilized to the BIAcore sensorship, CMS, using conventional amine coupling. 0.5 uM Bispecific construct (957/530) was injected over immobilized CD40 for 3 minutes and the dissociation was followed for 3 minutes. 2.17 uM CTLA4-Fc (Orencia, Bristol-Mayers Squibb) was injected over the CD40-Bispecific complex for 3 minutes and the dissociation phase was followed for 3 minutes. The chip was finally regenerated using 10 mM Glycine, pH 1.7. A Biacore 3000 instrument was used according to the manufacturer's protocols.
The six different exemplary bispecific polypeptides from Example 13 were tested for their ability to bind to both CD40 and CTLA-4. This was assessed by Surface Plasmon Resonance using the same protocol as in Example 7 above.

[2] = target: T2, CD40-Fc (Ancell # 504-820) (human, UniProt P25942 in part); assay: binding ELISA on coated CD40-Fc (protocol of Example 7), sample titrated, anti-human IgG Fc-HRP
T2 construct: Bought reagent; also called human CD40; not shown: Fc part of the bought fusion

[3] = target: B1; assay: binding ELISA on coated CTLA4-Fc (protocol of Example 7), sample titrated, anti-human IgG Fc-HRP

CD40-Fc (R&D #1493-CD), sequence (P25942 21-193 limits assumed): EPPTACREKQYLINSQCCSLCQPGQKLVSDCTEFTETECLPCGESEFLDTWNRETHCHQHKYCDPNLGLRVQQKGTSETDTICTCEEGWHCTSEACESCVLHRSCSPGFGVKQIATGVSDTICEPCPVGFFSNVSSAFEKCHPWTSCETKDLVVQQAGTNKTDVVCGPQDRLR

Binder | IC50 (read off the curve) [1] | Kd (CD40-Fc (R&D #1493-CD)) | koff (CD40-Fc (R&D #1493-CD)) | kon (CD40-Fc (R&D #1493-CD)) | EC50 (read off the curve) [2] | EC50 (read off the curve) [3]
B1 | ~1 µg/mL | – | – | – | – | –
Bispecific polypeptide 1134/1141 (bispecific antibody) light: not shown heavy: EVQLLESGGGLVQPGGSLRLSCAASGFTFSSYAMSWVRQAPGKGLEWVSSIYSGGGGTSYADSVKGRFTISRDNSKNTLYLQMNSLRAEDTAVYYCARGPAYSSFFDYWGQGTLVTVSS[human IgG1 constant region not shown] | – | 14.1 nM | 0.00189 s⁻¹ | 134000 M⁻¹ s⁻¹ | ~0.9 nM | ~0.02 µg/mL
